# Results reported in PubChem BioAssay AID2451 (National Center for Advancing Translational Sciences (NCATS), 2010).
# Several values for one entry are separate records, joined by “and”; a condition that tells them apart may be missing. Equal entries are not always repeated. About 2,100 (0.72%) of roughly 290,000 compounds were called active. The inconclusive results got no clear call from the source; some entries with a clear call stand among them for comparison. Calls come from the whole dose curve; as a rule, active = well fitted inhibition curve with a large enough effect; inconclusive = small, poorly fitted or top-dose-only effect, or effect the other way; inactive = flat fitted curve, though single readings scatter. Where the call is inconclusive, the potency comes from a doubtful curve fit.
# Biological target: Fructose-bisphosphate aldolase (Giardia intestinalis (strain ATCC 50803 / WB clone C6)) (UniProt A8B2U2)
# Assay: qHTS Assay for Inhibitors of Fructose-1,6-bisphosphate Aldolase from Giardia Lamblia; note: nearly all actives have a fitted effect of over 55% in size
# Details: purified Giardia FBPA; series mostly up to 59.6 µM
# Procedure, shortened: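 40 nM FBPA preincubated 10 min at RT with compound (up to 57.5 uM final), then substrate plus GAPDH/TPI/NAD/arsenate coupling and diaphorase/resazurin added. Fluorescence read after 20 min at RT, 525/598 nm.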
# Potency is the fitted concentration of half-maximal effect; tags give direction and shape of the fitted curve.
# Sequence of UniProt A8B2U2 (A8B2U2 whole entry, looked up): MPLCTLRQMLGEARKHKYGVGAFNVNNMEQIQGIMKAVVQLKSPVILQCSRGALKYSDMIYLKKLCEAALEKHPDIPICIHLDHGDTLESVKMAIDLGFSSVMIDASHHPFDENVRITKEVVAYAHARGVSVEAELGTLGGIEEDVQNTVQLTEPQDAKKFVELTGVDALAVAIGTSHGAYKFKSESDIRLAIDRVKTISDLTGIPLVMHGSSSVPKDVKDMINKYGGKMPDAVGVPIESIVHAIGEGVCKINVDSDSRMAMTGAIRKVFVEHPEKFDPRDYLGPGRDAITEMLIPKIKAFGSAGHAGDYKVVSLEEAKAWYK
row,SMILES,Potency
1,CC(=O)n1c(C=Nc2ccc(Cl)cc2)c(O)c2ccccc21,"inconclusive: 15.8 µM [inhibitor, single point]"
2,COc1ccc(CNC(=S)Nc2ccccc2)cc1,inactive
3,Cc1ccc(S(=O)(=O)N2CCN(CCC#N)CC2)cc1,"inconclusive: 14.1 µM [inhibitor, partial curve]"
4,CNC(CC(=O)c1ccc([N+](=O)[O-])cc1)C(Cl)(Cl)Cl (centres undefined),inactive
5,COc1ccc(C(NCC(=O)NC(C)c2ccc(Cl)cc2)c2ccccc2)cc1 (centres undefined),"inconclusive: 25.1 µM [inhibitor, partial curve]"
6,C[C@@H](NC(=O)c1nc[nH]c1C(=O)N[C@@H](Cc1ccccc1)C(=O)OC(C)(C)C)c1ccccc1,"inconclusive: 17.7 µM [inhibitor, single point]"
7,COc1cccc(C(=O)N2CCN(C3CCCCC3)CC2)c1,"inconclusive: 20 µM [inhibitor, partial curve, poor fit]"
8,COc1cc2c(cc1OC)C(c1cc(OC)c(OC)cc1[N+](=O)[O-])N(C(C)=O)CC2 (centres undefined),inactive
9,Cc1csc(NC(=O)c2ccc(OCC3CCCO3)cc2)n1 (centres undefined),inactive
10,COc1ccc(C2=Nn3c(nnc3-c3ccc(OC)c(OC)c3)SC2)cc1OC,inactive
11,O=C(O)/C=C/c1ccc(S(=O)(=O)Nc2ccc(OCc3ccccc3)cc2)cc1,"inconclusive: 15.8 µM [activator, partial curve]"
12,O=C(COc1ccccc1)NC1C(=O)N2C(C(=O)O)=C(Cl)CSC12 (centres undefined),"inconclusive: 31.6 µM [inhibitor, single point]"
13,COc1cc(NC(=S)NC(=O)CC(C)C)ccc1NC(=O)c1cc2ccccc2o1,inactive
14,O=C(CN1CCc2ccccc2C1)Nc1cccc(S(=O)(=O)N2CCCC2)c1,"inconclusive: 17.7 µM [inhibitor, single point]"
15,O=C(Nc1ccccc1)/C(=C\c1cccs1)NC(=O)c1ccccc1,inactive
16,CC(C)Oc1ccc(C(=O)O)c(C(=O)O)c1,inactive
17,Clc1ccc(CN2CCN(c3ncccn3)CC2)cc1Cl,"inconclusive: 20 µM [inhibitor, partial curve]"
18,O=C1CCCC/C1=C\Nc1ccc(O)cc1,"inconclusive: 44.6 µM [inhibitor, single point]"
19,O=C(CN1CCSCC1)N/N=C/c1cccc(Cl)c1,"inconclusive: 17.7 µM [inhibitor, partial curve]"
20,Cc1ccc(S(=O)(=O)NCC(=O)NCC(=O)NC(C)c2ccccc2Br)cc1C (centres undefined),inactive
21,COC(=O)CCCC1=CC2=C(c3ccccc3)C(=O)C(C)(OC(=O)C3CCCC3)C(=O)C2=CN1C1CC1 (centres undefined),"inconclusive: 2.81 µM [inhibitor, full curve]"
22,O=C(NC(=S)N1CCCCC1c1cccnc1)c1ccc(F)cc1 (centres undefined),"inconclusive: 7.94 µM [inhibitor, partial curve]"
23,O=C(NC(C(=O)N/N=C/c1ccccn1)c1n[nH]c(=O)c2ccccc12)c1ccccc1 (centres undefined),"inconclusive: 17.7 µM [inhibitor, single point]"
24,CC(=O)Oc1c2occc2cc2ccc(=O)oc12,"inconclusive: 35.4 µM [inhibitor, single point]"
25,CCOC(=O)c1cc(C(C)(C)C)oc1CNC(=O)c1c(C)oc2c1CCCC2,inactive

row,SMILES,Potency
1,CCOCCCn1c(=N)c(C(N)=S)cc2c(=O)n3cccc(C)c3nc21,"inconclusive: 7.92 µM [inhibitor, partial curve]"
2,COc1ccc(N2CCC(CNC(=O)Nc3cccc(OC)c3)C2)cc1 (centres undefined),"inconclusive: 14.1 µM [inhibitor, partial curve]"
3,COc1ccc(/C=C/C(=O)O)cc1S(=O)(=O)N1CCC(Cc2ccccc2)CC1,"inconclusive: 17.7 µM [activator, partial curve]"
4,COc1ccc(CN2CCC(C(N)=O)CC2)cc1OCc1ccccc1,"inconclusive: 15.8 µM [inhibitor, partial curve]"
5,CSc1ccc(NC(=O)NCc2ccccc2)cc1,inactive
6,O=[N+]([O-])c1ccccc1-c1ccc(C(=S)N2CCN(c3ccccc3)CC2)o1,inactive
7,NC(=O)CSc1nnc(-c2ccccn2)n1N,inactive
8,CCOC(=O)C1(CCc2ccccc2)CCN(C(=O)CN2CCOC2=O)CC1,inactive
9,C=CCn1c(C23CC4CC(CC(C4)C2)C3)n[nH]c1=S,"inconclusive: 2.24 µM [inhibitor, full curve]"
10,c1ccc2c(c1)CCN(C1CCCCC1)C2,"inconclusive: 25.1 µM [inhibitor, partial curve]"
11,O=C(Nc1nnc(-c2ccco2)o1)c1ccc(N2C(=O)CCC2=O)cc1,active: 17.7 µM
12,O=c1[nH]c(=O)n(Cc2ccc(F)cc2)c(O)c1/C=N/Nc1ccccc1,"inconclusive: 17.7 µM [inhibitor, single point]"
13,CCCSCC(=O)Nc1ncc2c(n1)-c1ccccc1CC2,"inconclusive: 17.7 µM [inhibitor, single point]"
14,CCOC(=O)c1ccc(NC(=O)CN2C(=O)CN(C(C)=O)C2=S)cc1,inactive
15,COc1ccc(C2CC(=O)Nc3ccccc3S2(=O)=O)cc1OC (centres undefined),"inconclusive: 11.2 µM [inhibitor, partial curve]"
16,O=C1CSC(=S)N1N=C1CCCCCC1,"inconclusive: 17.7 µM [inhibitor, single point]"
17,CN(C)CCCn1c(SCc2ccc(Cl)cc2)nnc1-c1ccncc1,"inconclusive: 28.2 µM [inhibitor, partial curve]"
18,COc1ccc(C2c3[nH]c4ccccc4c3C[C@H]3C(=O)N(c4ccccc4C(=O)NCCN4CCOCC4)C(=O)N23)cc1 (some centres undefined),"inconclusive: 44.7 µM [inhibitor, partial curve]"
19,Cc1nc(CSc2nsc(/C=C/N(C)C)c2C#N)cs1,"inconclusive: 12.6 µM [inhibitor, partial curve]"
20,COc1ccc2c(c1OC)C(=O)OC2CC(=O)c1ccc(O)c(O)c1 (centres undefined),"inconclusive: 6.29 µM [inhibitor, partial curve]"
21,S=C(NCC(c1ccco1)N1CCCC1)Nc1ccccc1 (centres undefined),inactive
22,COc1ccc2c(c1OC)C(=O)N1N=C(c3ccccc3)CC21 (centres undefined),inactive
23,CCCCNCCOCCSc1ccc(Cl)cc1,"inconclusive: 17.7 µM [inhibitor, partial curve]"
24,COc1cccc(N(CC(=O)NCc2ccco2)C(=O)CCC(=O)Nc2nccs2)c1,inactive
25,NC(=S)N/N=C/c1ccc(-c2ccc([N+](=O)[O-])cc2)o1,"inconclusive: 14.1 µM [inhibitor, partial curve]"

row,SMILES,Potency
1,CCOC(=O)C1=C(C)NC(=S)NC1c1ccco1 (centres undefined),"inconclusive: 25.1 µM [inhibitor, single point]"
2,O=C(Nc1ccc(O)cc1)C1CC=CCC1 (centres undefined),"inconclusive: 12.6 µM [inhibitor, partial curve]"
3,Cc1ccc(C(=O)Cn2nc(C(=O)O)c3ccccc3c2=O)cc1C,inactive
4,COc1ccc(CNCc2cccc(OC)c2OC)cc1Br,"inconclusive: 19.9 µM [inhibitor, partial curve]"
5,O=C(CSc1nnc(-c2ccncc2)s1)Nc1ccc(Cl)c(C(=O)O)c1,"inconclusive: 28.2 µM [inhibitor, single point]"
6,S=c1nc[nH]c2nc[nH]c12,active: 5.61 µM and active: 7.94 µM
7,CCOc1cc(/C=N/Nc2nc(=O)[nH]nc2C)ccc1O,"inconclusive: 15.8 µM [inhibitor, partial curve]"
8,Cc1cccc(/C=N/NC(=O)c2cc(Br)ccc2OCc2ccccc2)n1,inactive
9,O=C(COC(=O)c1ccc(Cl)cc1O)NCCN1C(=O)CSC1=O,inactive
10,COc1ccc(C(=O)NNC(=S)NC(=O)C(C)(C)C)cc1,"inconclusive: 19.9 µM [inhibitor, single point]"
11,CCN(CC)S(=O)(=O)c1cccc(C(=O)N/N=C/c2ccc(O)c(O)c2O)c1,active: 4.46 µM
12,CC(C)CCCN1CCN=C1N(C)C,inactive
13,COc1ccc([C@H]2[C@H](C(=O)C(C)(C)C)N3N=Cc4ccccc4C3[C@]23N=C(c2ccccc2)OC3=O)cc1 (some centres undefined),inactive
14,CC(C)CN1CC[C@@]2(CCCN(C(=O)c3csnn3)C2)C1,"inconclusive: 17.7 µM [inhibitor, single point]"
15,N#CC(C#N)=Cc1cc(O)c(O)c(O)c1,active: 15.8 µM
16,C=CCN(CC=C)CCOc1ccc2ccccc2c1,"inconclusive: 17.7 µM [inhibitor, partial curve]"
17,O=c1cnc(-c2ccc(Cl)cc2)cn1O,"inconclusive: 31.5 µM [inhibitor, single point]"
18,O=[N+]([O-])c1cc2cccnc2c2ncccc12,"inconclusive: 22.3 µM [inhibitor, single point]"
19,NS(=O)(=O)c1ccc(NC(=O)c2ccc3c(c2)CCN3S(=O)(=O)c2ccccc2)cc1,inactive
20,Cc1ccc(-c2nc3ccccc3o2)cc1NC(=S)NC(=O)c1cc2ccccc2o1,inactive
21,Cc1nc2ccc(NC(=S)NCCCO)cc2nc1C,"inconclusive: 3.97 µM [inhibitor, full curve]"
22,Cc1ccc2[nH]c(=O)c(CNC(C)(C)C)cc2c1,"inconclusive: 39.8 µM [inhibitor, single point]"
23,Cc1ccc2[nH]c(=O)c(C(c3nnnn3CC3CCCO3)N3CCc4ccccc4C3)cc2c1 (centres undefined),"inconclusive: 17.7 µM [inhibitor, partial curve]"
24,Cc1cccc(N=Cc2[nH]c3ccc(Br)c(Cl)c3c2O)c1,"inconclusive: 7.06 µM [inhibitor, full curve, poor fit]"
